From a collection of fitness landscapes (doi:10.1016/j.celrep.2020.107928)
The full ranking holds about 81,000 sequences; the median of “one-hybrid fitness for binding parS DNA” is about -0.17, and the highest 2% start at about 0.51. The list shows a part of the results.

B1: Caulobacter ParB omega fusion; a variant is named by its letters at X, in order, B8GW30 (parent)
chain: MESVVVGEPGMSEGRRGLGRGLSALLGEVDAAPAQAPGEQLGGSREAPIEILQRNPDQPRRTFREEDLEDLSNSIREKGVLQPILVRPSPDTAGEYQIVAGERAWRAAQRAGLKTVPIMVRELDDLAVLEIGIIENVQRADLNVLEEALSYKVLMEKFERTQENIAQTIGKSXSHVANXMRLLXLPDEVQSYLVSGELTAXHARAIAAAADPVALAKQIIEGGLSVRETEALARKAPNLSAGKSKGGRPPRVKDTDTQALESDLSSVLGLDVSIDHRGSTGTLTITYATLEQLDDLCNRLTRGI

Variants of: B1
Assay: one-hybrid fitness for binding parS DNA (scaled: cognate 1, non-cognate 0); higher = stronger binding
Settings: with parS DNA site
Procedure, shortened: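 Selection: bacterial one-hybrid in E. coli USO, HIS3 reporter with the site 19 bp from the promoter, 48 hours at 37°C on M9-minus-histidine plus 0.1 mM IPTG and 5 mM 3-AT. Libraries were Caulobacter ParB with four randomised specificity codons, sequenced on Illumina before and after selection. Fitness is the rescaled log change in variant-to-wild-type read ratio, anchored to the cognate and non-cognate sites.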

Variant | one-hybrid fitness for binding parS DNA
EWHT | ≤ 0.2
TWRS | ≤ 0.2
MYPR | ≤ 0.2
EQQR | ≤ 0.2
MLNL | ≤ 0.2
QHVS | ≤ 0.2
GHWR | ≤ 0.2
WSTM | ≤ 0.2
ILFG | ≤ 0.2
GSSA | ≤ 0.2
SGTH | ≤ 0.2
TLGH | ≤ 0.2
PLIR | ≤ 0.2
NDPQ | ≤ 0.2
LGRY | ≤ 0.2
IFQI | ≤ 0.2
CEMF | ≤ 0.2
LVWR | ≤ 0.2
STWS | ≤ 0.2
MCYV | ≤ 0.2
EDVR | ≤ 0.2
RVQF | 0.234
LHPM | ≤ 0.2
PQPA | ≤ 0.2
LGNN | ≤ 0.2
EAIT | ≤ 0.2

Variant | one-hybrid fitness for binding parS DNA
CNRL | ≤ 0.2
CTLL | ≤ 0.2
DVCS | ≤ 0.2
LCVG | ≤ 0.2
EQCG | ≤ 0.2
HVTA | ≤ 0.2
PGSE | ≤ 0.2
QSPN | ≤ 0.2
HKPF | ≤ 0.2
VCYT | ≤ 0.2
HKHQ | ≤ 0.2
TERL | ≤ 0.2
QQAP | ≤ 0.2
GLFS | ≤ 0.2
IWLT | ≤ 0.2
KYAV | ≤ 0.2
SRLQ | ≤ 0.2
AHHI | ≤ 0.2
RNEN | ≤ 0.2
TVWS | ≤ 0.2
ISFS | ≤ 0.2
KSRV | ≤ 0.2
IHFS | ≤ 0.2
VFTF | ≤ 0.2
QVPH | ≤ 0.2
ELFW | ≤ 0.2

Variant | one-hybrid fitness for binding parS DNA
ETTL | ≤ 0.2
SYMG | ≤ 0.2
KWHY | ≤ 0.2
QAFR | ≤ 0.2
TKCW | ≤ 0.2
YNVR | ≤ 0.2
AVQT | ≤ 0.2
HCSF | ≤ 0.2
AFGR | ≤ 0.2
AQYS | ≤ 0.2
NNDN | ≤ 0.2
STHS | ≤ 0.2
AEKE | ≤ 0.2
NRLC | ≤ 0.2
CLRT | ≤ 0.2
KRTF | ≤ 0.2
QSVQ | ≤ 0.2
RCAG | 1.02
TSES | ≤ 0.2
QCMP | ≤ 0.2
EMSC | ≤ 0.2
RMCS | 1.01
QWVK | ≤ 0.2
SMKY | ≤ 0.2
NTPN | ≤ 0.2
QRGR | ≤ 0.2

Variant | one-hybrid fitness for binding parS DNA
RNNL | ≤ 0.2
PRDM | ≤ 0.2
PYDS | ≤ 0.2
IFMR | ≤ 0.2
PMLQ | ≤ 0.2
GIMV | ≤ 0.2
CKTD | ≤ 0.2
IKLR | ≤ 0.2
WVGW | ≤ 0.2
FYNR | ≤ 0.2
LAGK | ≤ 0.2
IGED | ≤ 0.2
MVLL | ≤ 0.2
LHYG | ≤ 0.2
TPMK | ≤ 0.2
PMKS | ≤ 0.2
PKPP | ≤ 0.2
ALRM | ≤ 0.2
GSKS | ≤ 0.2
WSCF | ≤ 0.2
TMCT | ≤ 0.2
YNCC | ≤ 0.2
GEYG | ≤ 0.2
AGNC | ≤ 0.2
FEPC | ≤ 0.2
TMHR | ≤ 0.2

Variant | one-hybrid fitness for binding parS DNA
NTAM | ≤ 0.2
QMHV | ≤ 0.2
RVSM | 0.347
HCSG | ≤ 0.2
RMWN | 0.43
PLKM | ≤ 0.2
KGCV | ≤ 0.2
AQTF | ≤ 0.2
LKQE | ≤ 0.2
DVSD | ≤ 0.2
YYWG | ≤ 0.2
RVLY | 0.508
SEIR | ≤ 0.2
VMLS | ≤ 0.2
LSPR | ≤ 0.2
MFPC | ≤ 0.2
SLID | ≤ 0.2
YVDG | 0.221
MTDC | ≤ 0.2
GPTC | ≤ 0.2
DVMK | ≤ 0.2
DTHW | ≤ 0.2
GAVA | ≤ 0.2
RAFT | 0.847
FNVL | ≤ 0.2
PNAT | ≤ 0.2

Variant | one-hybrid fitness for binding parS DNA
RDVW | ≤ 0.2
QWQG | ≤ 0.2
VTHL | ≤ 0.2
VDQP | ≤ 0.2
HEPR | ≤ 0.2
SREW | ≤ 0.2
IPLT | ≤ 0.2
KTGN | ≤ 0.2
YARC | ≤ 0.2
SLNF | ≤ 0.2
GYPI | ≤ 0.2
TCAV | ≤ 0.2
VQDA | ≤ 0.2
VNVN | ≤ 0.2
VKSS | ≤ 0.2
LQER | ≤ 0.2
KSNT | ≤ 0.2
WTLS | ≤ 0.2
QLMK | ≤ 0.2
TDIS | ≤ 0.2
KTFN | ≤ 0.2
PTNT | ≤ 0.2
EWKF | ≤ 0.2
